Measurements published in article PMC9342770.
These are yes or no findings as the source states them, for the method shown. Some entries that bind do so weakly or less than the wild type. Blank lines part the entries; values can stand above or below the binder they belong to.

What was measured:
PCH2 (Arabidopsis) [1] = molecular target: T1, PCH2 (Arabidopsis) (UniProt Q8H1F9); experiment: two-hybrid; GAL4 yeast two-hybrid in Y2HGold; AD (pGADT7) and BD (pGBKT7) fusions co-transformed; growth on high-stringency medium SD-LTHA (lacking leucine, tryptophan, histidine and adenine); 30°C; serial drop dilutions
T1 sequence: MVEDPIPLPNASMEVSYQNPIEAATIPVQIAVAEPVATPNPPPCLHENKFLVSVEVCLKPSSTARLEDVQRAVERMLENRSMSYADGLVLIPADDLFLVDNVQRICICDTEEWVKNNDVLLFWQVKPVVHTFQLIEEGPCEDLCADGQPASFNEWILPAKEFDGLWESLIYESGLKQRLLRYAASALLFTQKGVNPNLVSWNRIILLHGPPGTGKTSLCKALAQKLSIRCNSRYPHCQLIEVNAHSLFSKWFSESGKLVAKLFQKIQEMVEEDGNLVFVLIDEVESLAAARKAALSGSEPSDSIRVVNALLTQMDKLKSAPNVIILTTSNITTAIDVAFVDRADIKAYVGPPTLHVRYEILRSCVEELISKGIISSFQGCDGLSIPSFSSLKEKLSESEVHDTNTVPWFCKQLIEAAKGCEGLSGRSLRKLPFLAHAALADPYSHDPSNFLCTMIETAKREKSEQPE

ASY3 (Arabidopsis) [2] = molecular target: T2, ASY3 (Arabidopsis) (UniProt Q0WR66); experiment: as above
T2 sequence: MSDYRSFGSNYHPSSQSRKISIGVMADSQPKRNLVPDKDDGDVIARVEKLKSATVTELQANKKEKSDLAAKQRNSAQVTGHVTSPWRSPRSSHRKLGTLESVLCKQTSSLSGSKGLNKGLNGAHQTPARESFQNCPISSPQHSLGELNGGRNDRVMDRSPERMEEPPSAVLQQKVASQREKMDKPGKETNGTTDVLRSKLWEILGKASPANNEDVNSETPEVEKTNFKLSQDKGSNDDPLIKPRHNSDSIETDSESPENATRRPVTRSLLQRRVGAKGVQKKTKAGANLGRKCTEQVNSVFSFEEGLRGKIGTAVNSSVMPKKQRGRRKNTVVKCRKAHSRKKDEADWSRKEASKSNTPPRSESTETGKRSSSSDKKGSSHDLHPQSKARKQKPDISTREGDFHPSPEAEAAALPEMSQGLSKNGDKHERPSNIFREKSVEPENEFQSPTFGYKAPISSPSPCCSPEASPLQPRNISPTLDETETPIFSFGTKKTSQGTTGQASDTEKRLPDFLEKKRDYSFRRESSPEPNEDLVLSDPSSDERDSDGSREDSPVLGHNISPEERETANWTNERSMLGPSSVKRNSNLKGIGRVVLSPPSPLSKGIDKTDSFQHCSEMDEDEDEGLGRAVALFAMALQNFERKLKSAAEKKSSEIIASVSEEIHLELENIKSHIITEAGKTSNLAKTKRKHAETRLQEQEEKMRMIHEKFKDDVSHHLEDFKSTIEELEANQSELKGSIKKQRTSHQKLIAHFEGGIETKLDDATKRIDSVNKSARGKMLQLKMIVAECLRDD

ASY1 (Arabidopsis) [3] = molecular target: T3, ASY1 (Arabidopsis) (UniProt F4HRV8); experiment: condition: only on the most stringent medium SD -LTHA (lacking leucine, tryptophan, histidine and adenine); two-hybrid; GAL4 yeast two-hybrid in Y2HGold; AD (pGADT7) and BD (pGBKT7) fusions co-transformed; growth on high-stringency medium SD-LTHA (lacking leucine, tryptophan, histidine and adenine); 30°C; serial drop dilutions
T3 sequence: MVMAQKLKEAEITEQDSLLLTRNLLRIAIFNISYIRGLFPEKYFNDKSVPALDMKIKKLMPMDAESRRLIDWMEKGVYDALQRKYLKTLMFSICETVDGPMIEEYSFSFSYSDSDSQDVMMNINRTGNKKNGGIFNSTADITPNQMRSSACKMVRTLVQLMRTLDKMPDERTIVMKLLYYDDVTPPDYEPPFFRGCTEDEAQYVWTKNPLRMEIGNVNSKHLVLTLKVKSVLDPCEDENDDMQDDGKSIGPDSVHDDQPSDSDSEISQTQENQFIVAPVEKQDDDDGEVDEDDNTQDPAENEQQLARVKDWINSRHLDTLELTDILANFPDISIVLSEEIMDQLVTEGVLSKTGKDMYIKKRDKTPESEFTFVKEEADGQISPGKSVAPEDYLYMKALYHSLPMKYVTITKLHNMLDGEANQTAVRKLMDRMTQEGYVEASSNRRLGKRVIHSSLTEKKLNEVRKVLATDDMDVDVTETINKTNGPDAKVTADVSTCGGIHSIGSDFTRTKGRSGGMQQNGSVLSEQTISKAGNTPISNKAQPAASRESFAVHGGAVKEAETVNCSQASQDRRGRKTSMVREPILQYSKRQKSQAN

PCH2 (Arabidopsis) [4] = molecular target: T1, PCH2 (Arabidopsis); experiment: two-hybrid; GAL4 yeast two-hybrid in Y2HGold; AD (pGADT7) and BD (pGBKT7) fusions co-transformed; growth on low-stringency medium SD-LTH (lacking leucine, tryptophan and histidine); 30°C; serial drop dilutions
PRD3 (Arabidopsis) = PRD3 (Arabidopsis) (UniProt Q0WWX5); experiment: as above
ASY1 (Arabidopsis) [5] = molecular target: T3, ASY1 (Arabidopsis); experiment: as above
ASY3 (Arabidopsis) [6] = molecular target: T2, ASY3 (Arabidopsis); experiment: as above

binding (PCH2 (Arabidopsis) [1]): binds
binding (ASY3 (Arabidopsis) [2]): binds
binding (ASY1 (Arabidopsis) [3]): no binding
binding (PCH2 (Arabidopsis) [4]): binds
binding (PRD3 (Arabidopsis)): binds
binding (ASY1 (Arabidopsis) [5]): binds weakly
binding (ASY3 (Arabidopsis) [6]): binds
B1: PRD3 (protein, UniProt Q0WWX5 1-449)
chain: MKMNINKACDLKSISVFPPNLRRSAEPQASQQLRSQQSQQSFSQGPSSSQRGCGGFSQMTQSSIDELLINDQRFSSQERDLSLKKVSSCLPPINHKREDSQLVASRSSSGLSRRWSSASIGESKSQISEELEQRFGMMETSLSRFGMMLDSIQSDIMQANRGTKEVFLETERIQQKLTLQDTSLQQLRKEQADSKASLDGGVKFILEEFSKDPNQEKLQKILQMLTTIPEQVETALQKIQREICHTFTREIQVLASLRTPEPRVRVPTAPQVKAKENLPEQRGQAAKVLTSLKMPEPRVQVPAAPQAKENFPEQRGPVAKSNSFCNTTLKTKQPQFPRNPNDASARAVKPYLSPKIQVGCWKTVKPEKSNFKKRATRKPVKSESTRTQFEQCSVVIDSDEEDIDGGFSCLINENTRGTNFEWDAEKETERILRTARRTKRKFGNPIIIN

binding (PCH2 (Arabidopsis) [4]): binds
B2: PCH2 (protein, UniProt Q8H1F9 1-467)
chain: T1 sequence
